{"source": "the BET-seq Pho4 binding data (Le et al. 2018)", "note": "This is one part of the list. Values were computed here from the reads of four pooled replicates and scatter widely."}
{"molecular_target": "T1, Pho4 (S. cerevisiae) (UniProt P07270)", "T1 sequence": "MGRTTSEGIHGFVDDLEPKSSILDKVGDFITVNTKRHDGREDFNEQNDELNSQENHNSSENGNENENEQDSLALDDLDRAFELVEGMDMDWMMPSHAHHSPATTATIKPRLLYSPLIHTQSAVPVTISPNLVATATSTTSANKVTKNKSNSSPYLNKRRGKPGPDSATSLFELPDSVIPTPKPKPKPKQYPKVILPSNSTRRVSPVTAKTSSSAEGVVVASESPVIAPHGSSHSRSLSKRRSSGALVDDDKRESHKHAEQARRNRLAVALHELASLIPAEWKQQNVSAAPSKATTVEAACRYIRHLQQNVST", "assay": "relative binding free energy (BET-seq); higher = weaker binding", "settings": "reference: library average", "units": {"relative binding free energy": "kcal/mol"}}
{"sequence": "AATCTCACGTGGGAGG", "relative binding free energy": 0.31}
{"sequence": "CGAGTCACGTGTGAGT", "relative binding free energy": 0.19}
{"sequence": "TGACACACGTGGGGAG", "relative binding free energy": -0.02}
{"sequence": "AAGGGCACGTGCAGTT", "relative binding free energy": -0.14}
{"sequence": "TATTCCACGTGTGTTT", "relative binding free energy": -0.03}
{"sequence": "TGAGGCACGTGCCAGG", "relative binding free energy": -0.16}
{"sequence": "GTGTTCACGTGACTGT", "relative binding free energy": 0.34}
{"sequence": "TTTGACACGTGCATTT", "relative binding free energy": -0.01}
{"sequence": "TGGTGCACGTGGCCGA", "relative binding free energy": -0.11}
{"sequence": "TTATTCACGTGATATA", "relative binding free energy": 0.27}
{"sequence": "AGCTGCACGTGTTTGG", "relative binding free energy": 0.14}
{"sequence": "TGCGTCACGTGTTCGT", "relative binding free energy": 0.03}
{"sequence": "GTCTTCACGTGAATGG", "relative binding free energy": 0.43}
{"sequence": "AGCGCCACGTGAGGGG", "relative binding free energy": 0.09}
{"sequence": "ATTTTCACGTGGAGCG", "relative binding free energy": 0.23}
{"sequence": "GTTAACACGTGACGGG", "relative binding free energy": 0.12}
{"sequence": "GAGATCACGTGGATTT", "relative binding free energy": 0.28}
{"sequence": "CTATGCACGTGAAGTG", "relative binding free energy": 0.13}
{"sequence": "GTGGACACGTGAGTTA", "relative binding free energy": 0.2}
{"sequence": "GGAGTCACGTGTCAGT", "relative binding free energy": 0.29}
{"sequence": "TTATGCACGTGTTAAT", "relative binding free energy": -0.13}
{"sequence": "TACGGCACGTGTGTGT", "relative binding free energy": -0.04}
{"sequence": "AGGATCACGTGGGTGG", "relative binding free energy": 0.04}
{"sequence": "TAATTCACGTGTATAG", "relative binding free energy": 0.05}
{"sequence": "TACGACACGTGGGGTA", "relative binding free energy": -0.16}
{"sequence": "GTGTTCACGTGATGCG", "relative binding free energy": 0.15}
{"sequence": "ATAATCACGTGTAGGG", "relative binding free energy": 0.04}
{"sequence": "GCGGTCACGTGGGGTG", "relative binding free energy": -0.03}
{"sequence": "GAGTTCACGTGGTCGC", "relative binding free energy": 0.31}
{"sequence": "GGCGCCACGTGGAGTA", "relative binding free energy": 0.09}
{"sequence": "CTTCTCACGTGTGCTT", "relative binding free energy": 0.44}
{"sequence": "TTTCGCACGTGGGCGT", "relative binding free energy": -0.19}
{"sequence": "GTGGGCACGTGCAGTA", "relative binding free energy": -0.11}
{"sequence": "AGGTGCACGTGTGGTG", "relative binding free energy": 0.01}
{"sequence": "GTTTTCACGTGGGGGC", "relative binding free energy": 0.32}
{"sequence": "TTTTACACGTGGATGG", "relative binding free energy": 0.12}
{"sequence": "AGACGCACGTGTTTGA", "relative binding free energy": 0.03}
{"sequence": "TGTATCACGTGCTTCT", "relative binding free energy": 0.08}
{"sequence": "GACGTCACGTGGGGAG", "relative binding free energy": -0.06}
{"sequence": "CGAAGCACGTGGTTGT", "relative binding free energy": -0.1}
{"sequence": "AAGAGCACGTGCTGGG", "relative binding free energy": -0.23}
{"sequence": "TTGCGCACGTGTTCGT", "relative binding free energy": -0.13}
{"sequence": "ATGATCACGTGATTTT", "relative binding free energy": 0.26}
{"sequence": "TAGCTCACGTGGAGGG", "relative binding free energy": 0.26}
{"sequence": "GATTTCACGTGTGGGC", "relative binding free energy": 0.37}
{"sequence": "CTTTTCACGTGGGAGA", "relative binding free energy": 0.21}
{"sequence": "TGGTTCACGTGGTCTG", "relative binding free energy": 0.16}
{"sequence": "GGTCTCACGTGGTGTG", "relative binding free energy": 0.24}
{"sequence": "ATGCGCACGTGTGGCG", "relative binding free energy": -0.18}
{"sequence": "GTGTTCACGTGGCGAT", "relative binding free energy": 0.24}
{"sequence": "TGATGCACGTGATTTG", "relative binding free energy": 0.15}
{"sequence": "TAGGTCACGTGTCGCG", "relative binding free energy": 0.1}
{"sequence": "GCTCTCACGTGGGGTG", "relative binding free energy": 0.06}
{"sequence": "CGTAGCACGTGTGTGC", "relative binding free energy": -0.07}
{"sequence": "GATGTCACGTGGTCGT", "relative binding free energy": 0.13}
{"sequence": "TAGTCCACGTGGGAGG", "relative binding free energy": 0.02}
{"sequence": "ATGTCCACGTGGTGAT", "relative binding free energy": -0.02}
{"sequence": "ATCAGCACGTGGGGGG", "relative binding free energy": -0.09}
{"sequence": "TGGCACACGTGGGCGG", "relative binding free energy": -0.12}
{"sequence": "TTTTACACGTGATTCA", "relative binding free energy": 0.13}
{"sequence": "GATATCACGTGGGTTA", "relative binding free energy": 0.05}
{"sequence": "TTGGACACGTGGAGGA", "relative binding free energy": -0.01}
{"sequence": "CTTAGCACGTGTGGGA", "relative binding free energy": -0.04}
{"sequence": "AAAAACACGTGTGGTG", "relative binding free energy": -0.02}
{"sequence": "GTTCACACGTGTGTTA", "relative binding free energy": 0.15}
{"sequence": "GGTTTCACGTGCTAAG", "relative binding free energy": 0.27}
{"sequence": "GGGTACACGTGAAGCA", "relative binding free energy": 0.37}
{"sequence": "GTAGTCACGTGCGGTA", "relative binding free energy": -0.2}
{"sequence": "GTGTCCACGTGAGGCG", "relative binding free energy": 0.18}
{"sequence": "TGGGTCACGTGTTGCG", "relative binding free energy": 0.13}
{"sequence": "GAAGGCACGTGTGATG", "relative binding free energy": 0.08}
{"sequence": "CAGTTCACGTGGGGGC", "relative binding free energy": 0.14}
{"sequence": "ATTATCACGTGAATGG", "relative binding free energy": 0.28}
{"sequence": "GTTCGCACGTGGTATG", "relative binding free energy": -0.02}
{"sequence": "ATATTCACGTGCCGGG", "relative binding free energy": 0.22}
{"sequence": "GTGGGCACGTGTCGTT", "relative binding free energy": -0.06}
{"sequence": "AGGTACACGTGACTGG", "relative binding free energy": 0.08}
{"sequence": "TGACGCACGTGATGGA", "relative binding free energy": 0.06}
{"sequence": "TTTTTCACGTGTTGGA", "relative binding free energy": 0.29}
{"sequence": "CTGAGCACGTGTAGTG", "relative binding free energy": 0.03}
{"sequence": "GGAGTCACGTGAGCGC", "relative binding free energy": 0.42}
{"sequence": "GTTATCACGTGTCTTA", "relative binding free energy": 0.09}
{"sequence": "ATAGTCACGTGTGACT", "relative binding free energy": 0.19}
{"sequence": "ATTTTCACGTGTCTGG", "relative binding free energy": 0.24}
{"sequence": "GTGGCCACGTGGGTGG", "relative binding free energy": -0.16}
{"sequence": "GGTGACACGTGTCGCG", "relative binding free energy": 0.12}
{"sequence": "ATGGTCACGTGAGTTG", "relative binding free energy": 0.36}
{"sequence": "CTTGTCACGTGATTGG", "relative binding free energy": 0.27}
{"sequence": "TGTTTCACGTGGGAGG", "relative binding free energy": 0.2}
{"sequence": "TTGATCACGTGTTATG", "relative binding free energy": 0.16}
{"sequence": "AGGGTCACGTGGCGCG", "relative binding free energy": -0.03}
{"sequence": "TATGTCACGTGTCTGG", "relative binding free energy": 0.12}
{"sequence": "TAGGTCACGTGTTTTC", "relative binding free energy": 0.32}
{"sequence": "TTTTGCACGTGTCGCG", "relative binding free energy": -0.2}
{"sequence": "GCAGTCACGTGGTGTG", "relative binding free energy": -0.01}
{"sequence": "TCCTGCACGTGTTTGT", "relative binding free energy": -0.09}
{"sequence": "AGATGCACGTGGTCGG", "relative binding free energy": -0.07}
{"sequence": "CGATTCACGTGTTGTA", "relative binding free energy": 0.33}
{"sequence": "GTGATCACGTGTGCTA", "relative binding free energy": 0.14}
{"sequence": "ATGGTCACGTGCAAGG", "relative binding free energy": 0.16}
{"sequence": "GATTGCACGTGAGTTT", "relative binding free energy": 0.42}
{"sequence": "TTCTTCACGTGGGCGA", "relative binding free energy": 0.31}
{"sequence": "GTGTACACGTGTATGG", "relative binding free energy": 0.01}
{"sequence": "TTTTTCACGTGGTTGC", "relative binding free energy": 0.28}
{"sequence": "TAGAGCACGTGGTGGG", "relative binding free energy": -0.12}
{"sequence": "TATATCACGTGTATCT", "relative binding free energy": 0.07}
{"sequence": "GTCGACACGTGAGGGG", "relative binding free energy": 0.31}
{"sequence": "CGAAGCACGTGGGGAG", "relative binding free energy": -0.19}
{"sequence": "CAAGTCACGTGAAGGG", "relative binding free energy": 0.33}
{"sequence": "TGTAGCACGTGTGGTG", "relative binding free energy": -0.01}
{"sequence": "ATTGGCACGTGCTGTG", "relative binding free energy": -0.18}
{"sequence": "TCGGTCACGTGTGTTC", "relative binding free energy": 0.2}
{"sequence": "GAGGGCACGTGATCGG", "relative binding free energy": 0.13}
{"sequence": "TTTTTCACGTGGTGGC", "relative binding free energy": 0.38}
{"sequence": "ATCGTCACGTGGTATG", "relative binding free energy": -0.03}
